Several values for one entry are separate records, joined by “and”; a condition that tells them apart may be missing. Identical values can stand only once. The whole screen tested about 16,000 compounds, of which about 40 (0.2%) were called active. Not shown: some 1% with an inconclusive outcome. The call rests on the fitted dose curve; in most records, active means well fitted activation curve with a large enough effect; inconclusive means small, poorly fitted or top-dose-only effect, or another doubt; inactive means no such curve, though single readings can be large or run the other way. Some of the results follow.
molecular target: Rap guanine nucleotide exchange factor 4 (Homo sapiens) (UniProt Q8WZA2); assay: Validation qHTS for agonist of cAMP-regulated guanine nucleotide exchange factor 4 (EPAC2); details: EPAC2 Rap1B BODIPY-GDP exchange, fluorescence; activation: hits give high values;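 further: exchange makes BODIPY-GDP fluorescence drop when released from Rap1B; series mostly up to about 150 µM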
How it was run: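 Signal normalized against 6.5 mM cAMP as agonist control. Mix of EPAC2 (100 nM), RAP1B-BODIPY-GDP (250 nM) and GDP (50 uM) was read kinetically at 480/540 nm, every 5 min over 30 min, after 5 min room-temperature incubation with compound.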
On the % scale 0 is the no-effect control and ±100 the full control effect.

UniProt Q8WZA2, sequence (Q8WZA2 whole entry, looked up): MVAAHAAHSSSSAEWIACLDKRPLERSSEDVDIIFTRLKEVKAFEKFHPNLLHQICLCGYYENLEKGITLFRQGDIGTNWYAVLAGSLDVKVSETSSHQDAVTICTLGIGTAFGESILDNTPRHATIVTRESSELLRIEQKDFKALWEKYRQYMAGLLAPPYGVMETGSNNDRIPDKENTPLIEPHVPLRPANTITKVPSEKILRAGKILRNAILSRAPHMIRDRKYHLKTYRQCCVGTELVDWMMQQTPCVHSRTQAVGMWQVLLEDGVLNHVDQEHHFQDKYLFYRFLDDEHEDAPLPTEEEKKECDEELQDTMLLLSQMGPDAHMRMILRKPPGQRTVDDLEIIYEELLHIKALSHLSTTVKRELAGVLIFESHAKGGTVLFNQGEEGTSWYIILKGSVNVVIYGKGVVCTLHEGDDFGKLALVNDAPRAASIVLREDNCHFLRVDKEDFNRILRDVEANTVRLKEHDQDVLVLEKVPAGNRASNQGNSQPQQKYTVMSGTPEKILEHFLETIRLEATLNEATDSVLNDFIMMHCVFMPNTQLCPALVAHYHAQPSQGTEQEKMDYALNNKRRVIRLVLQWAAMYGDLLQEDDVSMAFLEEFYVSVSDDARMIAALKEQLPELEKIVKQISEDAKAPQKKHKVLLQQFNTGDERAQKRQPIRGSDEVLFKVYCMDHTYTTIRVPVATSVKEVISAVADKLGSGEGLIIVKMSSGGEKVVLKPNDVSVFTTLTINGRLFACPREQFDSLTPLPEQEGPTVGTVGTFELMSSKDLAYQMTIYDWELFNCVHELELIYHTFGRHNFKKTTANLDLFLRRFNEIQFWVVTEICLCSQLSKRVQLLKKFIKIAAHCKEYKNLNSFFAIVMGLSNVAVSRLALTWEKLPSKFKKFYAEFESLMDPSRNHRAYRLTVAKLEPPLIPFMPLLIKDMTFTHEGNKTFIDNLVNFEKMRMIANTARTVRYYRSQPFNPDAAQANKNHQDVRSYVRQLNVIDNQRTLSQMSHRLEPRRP

activation, inactive:
CCCCCCCCCCCCCCCCCCOCC(COP(=O)([O-])OCC[N+](C)(C)C)OC (configuration not stated) -13.9%, COc1ccccc1CNc1cc(-c2cccc(C#N)c2)ncn1 -9.7%, Cc1cc(C)nc(S[C@H]2C[C@@H](C(=O)N3CCN(c4ccccc4F)CC3)N(Cc3ccccc3C(F)(F)F)C2)n1 12.4%, OC1C2COC(O2)[C@H](O)C1O (some centres not stated) -28.7%, CCCCN1CC[C@H]2C=CC[C@@H](C(=O)N3CCOCC3)[C@H]2C1=O -13.5%, COc1cccc(Cn2c(=O)c(-c3ccc(Cl)cc3)nc3cnc(N(C)C)nc32)c1 5.47%, Cc1onc(-c2ccccc2)c1C(=O)N[C@@H]1C(=O)N2[C@@H](C(=O)O)C(C)(C)S[C@@H]12 0.698%, C=C[C@@H]1c2ccccc2N(S(=O)(=O)c2ccc(C)cc2)[C@H](c2ccccc2C(F)(F)F)C1(C#N)C#N -0.723%, COc1ccc(NC(=O)N2CCCC3(CCN(C(=O)c4ccco4)CC3)C2)cc1 -6.77%, COc1cc(C(O)CO)ccc1OS(=O)(=O)O (configuration not stated) -18.7%, Cc1noc(C)c1-c1nccc(NCc2ccccc2)n1 -28.5%, Cc1ccc2oc(-c3ccccc3)c(O)c(=O)c2c1 -4.86%, O=C(c1ccco1)N(Cc1cc2cc3c(cc2nc1N1CCOCC1)CCC3)CC1CCCO1 (configuration not stated) -1.79%, CN1CCCCCC1C(=O)NCC1Cc2cc(-c3cnccn3)ccc2O1 (configuration not stated) 3.37%, Cc1ccc(CN2C[C@H](Sc3ccccn3)C[C@H]2C(=O)Nc2ccc3sc(C)nc3c2)s1 0.525%, CC(C)CN1CCC2(CC1)CCN(C(=O)c1ccco1)CC2 -7.83%, CN(CCO)C(=O)c1cn(C2CCN(Cc3cccc(C(F)(F)F)c3)CC2)nn1 -9.76%, COc1ccc(NC(=O)N2CCCC3(CCN(C(=O)c4cc(C(F)(F)F)cc(C(F)(F)F)c4)CC3)C2)cc1 -22.4%, COc1cc(-c2nc(C)cnc2C)cc2c1OCCN(C(=O)Cc1cc(OC)c(OC)c(OC)c1)C2 -14.3%, CC[C@H]1C(=O)[C@@H](Cc2ccccc2)[C@@H]2CCN3C(=O)CCC[C@H]1[C@H]23 -3.28%, O=C1O/C(=C/Br)CCC1c1cccc2ccccc12 (configuration not stated) -38%, O=CN1CCCN(C(=O)c2cc(NC(=O)c3ccccc3)cc3ncn(C4CCCC4)c23)CC1 -4.8%, COc1ccc(CCNc2ncnc3sc(C(=O)N4CCCC4)c(C)c23)cc1OC -4.7%, CN1CCN(c2ncc3nc(-c4cc(F)cc(F)c4)c(=O)n(CCc4ccccc4)c3n2)CC1 1.89%, COC(=O)N1CCC[C@@]2(CCN(Cc3nccs3)C2)C1 -11.1%, CC(C)NC(=O)N1CC2(CCN(C(=O)c3ccncc3)CC2)C1 -19.6%, CCNc1ncc2nc(-c3ccc(Cl)cc3)c(=O)n(Cc3ccc(F)cc3)c2n1 -12%, CC1O[C@@H](O[C@H]2C(Oc3cc(O)c4c(c3)OC(c3ccc(O)cc3)CC4=O)OC(CO)C(O)C2O)C(O)C(O)C1O (some centres not stated) -14.4%, CCN1CCCC1CNC(=O)c1cnn(-c2nccc(-c3cc(OC)ccc3OC)n2)c1C (configuration not stated) 0.775%, CN(C)C(=O)c1ccc(-c2ccc3ncnc(NCc4cccnc4)c3c2)cc1 -6.72%, N#Cc1cccc(NC(=O)N2CCCC3(CCN(C(=O)c4ccco4)CC3)C2)c1 -11.6%, COCCNc1ncnc2ccc(-c3cccc(OC)c3)cc12 -2.86%, CC(O)COc1ccccc1 (configuration not stated) -8.25%, Cn1c(=O)cnc2cnc(Nc3ccccc3)nc21 -26.5%, COc1cccc(Nc2ncc3nc(C)c(=O)n(CCc4ccccc4)c3n2)c1 3.94%, COc1ccccc1CNc1cc(-c2ccccc2C)ncn1 3.53%, O=C(c1ccncc1)N1CCC2(CC1)CCN(C(c1ccccc1)c1ccccc1)CC2 -11.7%, N#Cc1ccc(CN2CCCC3(CCN(C(=O)c4cnccn4)CC3)C2)cc1 -16.4%, CC(C(=O)O)c1cccc(C(=O)c2ccccc2)c1 (configuration not stated) 3.13% and 9.94% and -26.6%, CC1(C)OC2C(CO)OC(n3cnc4c(=O)[nH]cnc43)C2O1 (configuration not stated) -17.2%, CCCCCCCCCCCC(=O)OCC(O)CO (configuration not stated) -76%, Nc1nc(N)c2nc(CNc3ccc(C(=O)N[C@@H](CCC(=O)O)C(=O)O)cc3)cnc2n1 -9.87%, COc1cc(=O)n2c(c1C(=O)N(C)Cc1nonc1C)CCN(Cc1ccc(F)cc1)CC2 -6.84%, CC(=O)Nc1ccc(/C=N/NC(N)=S)cc1 -26.2% and 5.8%, COC(=O)N1CCC2(CC1)CCN(C(c1ccccc1)c1ccccc1)CC2 0.719%, O=C(O)Cc1ccc(OCCNC[C@H](O)c2ccccc2)cc1 -0.721%, COc1ccccc1N1CCN(c2nc(CNC(=O)c3cc(C)oc3C)nc3ccccc23)CC1 -3.22%, COc1ccccc1-c1cncnc1NCc1ccccc1 -2.03%, O=C(NCC1Cc2cccc(-c3ncccn3)c2O1)c1cccc(-c2ccccc2F)c1 (configuration not stated) 4.82%, CN(C)c1nc(-c2cccc(C#N)c2)nc2ccccc12 -2.4%, C[C@@H](N)C1CCC(C(=O)Nc2ccncc2)CC1 (some centres not stated) -3.91% and 13.2% and 0.418%, NCC(O)(CS(=O)(=O)O)c1ccc(Cl)cc1 (configuration not stated) -33.9%, CC[C@H](NC(=O)c1c(C)c(-c2ccccc2)nc2ccccc12)c1ccccc1 4.43% and -8.45% and -47.6%, CCOC(=O)c1ncn2c1CN(C)C(=O)c1cc(F)ccc1-2 -0.286% and -17.7% and -12.1%, O=NN(CCCl)C(=O)NCCCl -5.2% and 1.4% and -13.7%, CC(C)(S)C(=O)N[C@@H](CS)C(=O)O -18% and 4.24%, COc1ncc2nc(C)c(=O)n(Cc3cccs3)c2n1 -6.26%, COc1cc(=O)n2c(c1C(=O)NCc1nonc1C)CCN(C(=O)c1cccc(C)c1C)CC2 5.01%, COc1ccc(-c2oc3ccc(C)cc3c(=O)c2O)cc1OC -7.8%, CC(=O)OC1C[C@]2(C)[C@@H](CC(O)C3[C@]4(C)CCC(O)C(C)[C@@H]4CC[C@]32C)/C1=C(/CCC=C(C)C)C(=O)O (some centres not stated) -17.1%, CCNc1ncc2nc(-c3cn(C)c4ccccc34)c(=O)n(Cc3ccc(F)cc3)c2n1 -13.2%, Cc1cc(C)c(NC(=O)CN(CC(=O)O)CC(=O)O)c(C)c1Br -0.749%, O=C(c1csnn1)N1CCC2(CC1)CN(c1ccccc1)C2 -10.6%, COc1ccc(-c2c(-c3ccc4c(c3)OCO4)noc2C)cn1 -22.9%, CO/S(=N\S(=O)(=O)c1ccc(Cl)cc1)c1ccc([N+](=O)[O-])cc1 (configuration not stated) 5.91%, CC1=C(/C=C/C(C)=C/C=C/C(C)=C/C=C/C=C(C)/C=C/C=C(C)/C=C/C2=C(C)C(=O)CCC2(C)C)C(C)(C)CCC1=O -24.4%, C=C1CC[C@H](O)C/C1=C/C=C1\CCC[C@]2(C)C([C@H](C)CCCC(C)(C)O)CC[C@@H]12 (some centres not stated) 2.4% and 3.18%, CCC1CN(CCNC(=O)c2ccccc2-n2cccn2)Cc2cc(OC)ccc2O1 (configuration not stated) -6.64%, Cc1ccc(CN2C[C@@H](Sc3nc(C)cc(C)n3)C[C@H]2C(=O)N2CCN(c3ccccc3F)CC2)cc1 -9.71%, COc1ccc(CN2[C@@H](CC(=O)O)c3cc(C(F)(F)F)ccc3S2(=O)=O)cc1 -8.71%, CO[C@H]1C=CO[C@@]2(C)Oc3c(C)c(O)c4c(O)c(cc(O)c4c3C2=O)NC(=O)/C(C)=C\C=C/[C@H](C)[C@H](O)[C@@H](C)[C@@H](O)[C@@H](C)[C@H](OC(C)=O)[C@@H]1C -0.0671%, CCOC(=O)C1CCCCN1Cc1nc(N2CCN(C(C)=O)CC2)c2ccccc2n1 (configuration not stated) 5.23%, CC1(C)CC23C(=O)CCC(O)C2(C)CCC13 (configuration not stated) -8.77%, Cc1nc(C)c(CC(=O)N2CCOc3ccc(CN4CCN(c5ccccn5)CC4)cc3C2)s1 -8.44%, Cc1cc(OCCOCC[N+](C)(C)Cc2ccccc2)ccc1C(C)(C)CC(C)(C)C -23.6%, COc1cccc(-c2ccc3ncnc(NCCNC(C)=O)c3c2)c1 -3.87%, Cc1nc2cnc(Nc3ccccc3)nc2n(CCc2ccccc2)c1=O 0.853%, COc1cc2c(cc1OC)C(c1ccccc1)=NCC2 -3.15%, Nc1ccnc2c1ncn2[C@@H]1O[C@H](CO)[C@@H](O)[C@H]1O 4.96%, COc1cc(/C=C/CN2CCOc3ccc(C(O)c4cccnc4)cc3C2)ccc1O (configuration not stated) -6.15%, COc1ccccc1-c1cc(Nc2ccn[nH]2)ncn1 -16.4%, COc1ccc2c(c1)CCc1cnc(-n3ncc(C(=O)N(C)CCc4ccccn4)c3C)nc1-2 -7.59%

Reference: PubChem BioAssay AID1645887 (National Center for Advancing Translational Sciences (NCATS), 2021)
